Measurements published in ChEMBL document CHEMBL1157539, “Thousands of chemical starting points for antimalarial lead identification” (Nature, 2010).
In all, about 13,000 compounds were measured (“IFI”: median about 4, highest 2% from about 17 on). The list shows a part of the results.

assay: GSK_TCMDC: Inhibition Frequency Index (IFI). The number of non-kinase HTS assays where a compound showed > 50 % inhibition, expressed as a percentage of the number of such assays in which the compound was tested (-0 is zero); format: functional

Which IFI does the source give for `N#Cc1ccc(-c2ccc(C(=O)NC3CCN(CCN4CCC(c5cn(CCO)c6ccccc56)CC4)CC3)cc2)cc1` here?
Its IFI is 1.83%.

With `Oc1ccc(-c2nc(-c3ccc4oc5ccc(-c6[nH]c(-c7ccc(O)cc7)nc6-c6ccccc6)cc5c4c3)c(-c3ccccc3)[nH]2)cc1` as the molecule, how does the IFI read?
The IFI was 3.45%.

For `Fc1ccc2[nH]c(-c3cccc(-c4ccc(CN5CCN(c6ccncc6)CC5)cc4)c3)nc2c1`, which IFI is on record?
Its IFI is 5.63%.

With `CC(C)(C)C1CC(=O)CC2C(=O)N(c3ccc(Br)cc3)C(=O)C21` (stereo not given) as the molecule, how does the IFI read?
Its IFI is 0.74%.

For `CCC(C)c1cnc2nc(N)nc(N)c2c1C` (stereo not given), which IFI is on record?
The IFI was 2.31%.

For `COc1ccc(CNCc2ccsc2)cc1-c1ccc(S(=O)(=O)NCCN2CCCC2)c(C)c1`, which IFI is on record?
Its IFI is 7.84%.

For `CSc1ccc2ccccc2c1CNCCCCCCNCc1c(SC)ccc2ccccc12`, which IFI is on record?
Its IFI is 12.3%.

Which IFI does the source give for `CCCC(C(=O)OCCN(CC)CC)(c1ccc(Cl)cc1)c1ccc(Cl)cc1` here?
Its IFI is 0.73%.

Which IFI does the source give for `Cc1ccc(C)c(NC(=O)CC2C(=O)N(c3ccccc3)C(=S)N2Cc2ccco2)c1` (stereo not given) here?
The IFI was 0.76%.

With `CC(C)CNCc1ccc(-c2ccccc2CN(C(=O)NCCc2ccccc2)C2CCN(Cc3ccccc3)CC2)cc1` as the molecule, how does the IFI read?
Its IFI is 8.51%.

With `Nc1ccc2nc(C=Cc3ccccc3)[nH]c2c1` as the molecule, how does the IFI read?
Its IFI is 3.39%.

With `Oc1ccc(CCNCCCCCCNCCc2ccc(Cl)c(Cl)c2)cc1O` as the molecule, how does the IFI read?
The IFI was 8.03%.

For `COc1ccc(NC(=O)[C@H](CC(C)C)Nc2cc(C)nc(NCCc3ccccc3OC)n2)cc1`, which IFI is on record?
Its IFI is 10.5%.

Which IFI does the source give for `CCCCCCN1CCC(NCc2cccc([N+](=O)[O-])c2)CC1` here?
The IFI was 1.44%.

With `O=C(/C=C/c1ccc(Cl)cc1Cl)NCCCCCN1CCC(c2c[nH]c3ccccc23)CC1` as the molecule, how does the IFI read?
Its IFI is 7.75%.

With `CC(=O)Nc1ccc(C(=O)Nc2ccc(-c3cccc(-c4nc5ccccc5[nH]4)c3)cc2)cn1` as the molecule, how does the IFI read?
The IFI was 3.57%.

With `CCCc1cc(Cc2cnc(N)nc2N)cc(CCC)c1OCCCCC(=O)OC` as the molecule, how does the IFI read?
The IFI was 6.47%.

For `CC1N=C(N)N=C(N)N1OCc1ccccc1` (stereo not given), which IFI is on record?
Its IFI is 3.01%.

Which IFI does the source give for `Nc1c2c(nc3ccc(C(=O)Nc4ccccc4)cc13)CCCC2` here?
Its IFI is 2.05%.

For `C=CCn1c(=N)c(C(=O)NC2CCCCC2)cc2c(=O)n3cccc(C)c3nc21`, which IFI is on record?
The IFI was 1.79%.

Which IFI does the source give for `COc1ccc(CCNCCCCNCCc2ccc(OC)c3ccccc23)c2ccccc12` here?
Its IFI is 13.9%.

Which IFI does the source give for `CC(C)(C)C1CCc2nc(N)nc(N)c2C1` (stereo not given) here?
Its IFI is 2.8%.

For `Cc1cc(-c2cc(-c3ccc(OCCN(C)C)cc3)[nH]c2-c2ccc3c(c2)CCC3=NO)ccn1`, which IFI is on record?
The IFI was 4.26%.

With `CCC(C)NS(=O)(=O)c1ccc2nc(Nc3ccc(C)c(Cl)c3)n(C3CCCCC3)c2c1` (stereo not given) as the molecule, how does the IFI read?
The IFI was 2.19%.

With `O=C(NCCCCN1CCC(c2ccc3c(c2OCCCO)CCCC3)CC1)c1ccc(-c2ccc(C(F)(F)F)cc2)cc1` as the molecule, how does the IFI read?
The IFI was 8.62%.

With `CC(=O)NC1=NC(C)(C)N(OCc2ccc(Cl)c(Cl)c2)C(NC(C)=O)=N1` as the molecule, how does the IFI read?
Its IFI is 4.32%.

With `COc1ccc(-c2cncc3ccc(C(=O)NCCCn4ccnc4)nc23)cc1` as the molecule, how does the IFI read?
The IFI was 5.49%.

With `CC(C)(C)c1ccc(CNC(=O)c2ccc(-c3nc4cc(C(C)(C)C)ccc4[nH]3)cc2)cc1` as the molecule, how does the IFI read?
Its IFI is 1.48%.

With `COc1cccc(NC(=O)CSc2nc(-c3ccccc3Cl)ns2)c1` as the molecule, how does the IFI read?
The IFI was -0%.

For `Fc1cccc(COc2ccc(Nc3ncnc4sc(C#C[C@H]5CC[C@H](CN6CCOCC6)N5)cc34)cc2Cl)c1`, which IFI is on record?
Its IFI is 2.88%.

For `COc1ccc2c(=NN=Cc3cccnc3)cc(C)[nH]c2c1`, which IFI is on record?
Its IFI is 0.71%.

With `Cc1ccc(C(=O)Nc2cc(S(=O)(=O)N3CCCC3)ccc2OCC(F)(F)F)cc1` as the molecule, how does the IFI read?
The IFI was 0.95%.

For `Cc1cccc(C(=O)N2CCN(Cc3cccc(NC(=O)c4cccs4)c3)CC2)c1`, which IFI is on record?
Its IFI is 3.85%.

With `CCCCN1CCN(CC(O)CNC(=O)Nc2ccc(Cl)cc2)CC1` (stereo not given) as the molecule, how does the IFI read?
Its IFI is -0%.

Which IFI does the source give for `Cc1cc(N[C@@H](Cc2ccccc2)C(=O)NCCc2ccccc2)nc(NCCc2ccc(F)cc2)n1` here?
Its IFI is 17.1%.

Which IFI does the source give for `O=c1sn(-c2csc3ccccc23)c2ccccc12` here?
The IFI was 18.5%.

Which IFI does the source give for `COc1cc(Nc2nc(N)c3cc(OC)c(OC)cc3n2)cc(OC)c1` here?
The IFI was 1.67%.

Which IFI does the source give for `O=C(Nc1cccnc1)c1cc(C(=O)Nc2cccnc2)cc([N+](=O)[O-])c1` here?
Its IFI is -0%.

Which IFI does the source give for `Cc1noc(C)c1-c1cccc(CNCc2cccc(-c3cccc(-c4nc5cccc(C)c5[nH]4)c3)c2)c1` here?
Its IFI is 1.94%.

With `c1cc2[nH]c(CCc3nc4cc(C5=NC6CCCCC6N5)ccc4[nH]3)nc2cc1C1=NC2CCCCC2N1` (stereo not given) as the molecule, how does the IFI read?
Its IFI is 4.35%.

Which IFI does the source give for `CC(=O)N(C)c1cccc(C(=O)Nc2ccc(-c3cccc(-c4nc5cc(C(F)(F)F)ccc5[nH]4)c3)cc2)c1` here?
Its IFI is 7.76%.

With `O=c1cc(N2CCCNCC2)c(Cl)nn1Cc1ccc(NS(=O)(=O)c2ccc(Oc3ccccc3)cc2)cc1` as the molecule, how does the IFI read?
Its IFI is 7.64%.

Which IFI does the source give for `O=C(NC1CCN(c2ccnc3cc(Cl)ccc23)C1)c1ccc(F)cc1` (stereo not given) here?
Its IFI is 1.54%.

For `COc1cc2c(cc1C(F)(F)F)N(C(=O)Nc1cc(F)cc(-c3cncnc3)c1)CC2`, which IFI is on record?
The IFI was 4.38%.

Which IFI does the source give for `COc1ccc(N2CCN(C(CNC(=O)C3CCCCC3)c3ccc4c(c3)OCO4)CC2)cc1` (stereo not given) here?
Its IFI is 0%.
